From the antibiotic and cytotoxicity screens of Wong et al. (2023)
The other results are listed elsewhere or left out.

Columns and labels:
HSkMC = human skeletal muscle cells; test: cytotoxicity call (relative viability < 0.9); conditions: 10 µM
HepG2 = test: cytotoxicity call (relative viability < 0.9); conditions: 10 µM
S. aureus RN4220 = test: growth inhibition call (relative growth <= 0.2); conditions: 50 µM

Compound	cytotoxicity call (HSkMC)	cytotoxicity call (HepG2)	growth inhibition call (S. aureus RN4220)
COC(=O)c1c2oc(c1C(=O)OC)C(=O)N[C@@H](Cc1ccccc1)Cn1cc(nn1)[C@H](Cc1ccccc1)NC(=O)N[C@@H](COC(=O)NCCCCCC(=O)NO)CC2	inactive	inactive	inactive
C[C@H]1CN([C@@H](C)CO)C(=O)c2cc(NS(=O)(=O)c3ccc(Cl)cc3)ccc2O[C@@H]1CN(C)Cc1ccc(-c2ccccc2)cc1	inactive	inactive	inactive
Cc1noc(C)c1NC(=O)Nc1ccc2c(c1)CC(=O)N([C@H](C)CO)C[C@H](C)[C@H](CN(C)C(=O)Nc1cccc3ccccc13)O2	inactive	inactive	inactive
COc1ccc(CN(C)C[C@H]2OCCCC[C@@H](C)Oc3ccc(NS(=O)(=O)c4ccccc4)cc3C(=O)N([C@H](C)CO)C[C@@H]2C)cc1	inactive	inactive	inactive
CO[C@H]1CN(C)C(=O)c2cc(NC(=O)c3ccc(F)cc3)ccc2OC[C@H](C)N(C(=O)CN(C)C)C[C@H]1C	inactive	inactive	inactive
CCCN(C)C[C@@H]1Oc2cc(C#Cc3cccc(OC)c3)ccc2S(=O)(=O)N([C@@H](C)CO)C[C@@H]1C	inactive	inactive	inactive
C[C@@H]1CCCCO[C@H](CN(C)C(=O)Nc2ccc(F)cc2)[C@@H](C)CN([C@H](C)CO)C(=O)c2cc(NS(=O)(=O)c3ccc(Cl)cc3)ccc2O1	inactive	inactive	inactive
Cc1cc(Nc2ncc(Cl)c(Nc3ccccc3S(=O)(=O)C(C)C)n2)c(OC(C)C)cc1C1CCNCC1	active	active	inactive
Cc1ccc(S(=O)(=O)N(C)C[C@H]2OCCCC[C@H](C)Oc3ccc(NC(=O)Nc4ccccc4)cc3C(=O)N([C@@H](C)CO)C[C@H]2C)cc1	inactive	inactive	inactive
Cc1noc(C)c1NC(=O)Nc1ccc2c(c1)CC(=O)N([C@@H](C)CO)C[C@@H](C)[C@H](CN(C)S(=O)(=O)c1c(C)noc1C)O2	inactive	inactive	inactive
COc1ccc(NC(=O)N(C)C[C@@H]2Oc3c(NS(C)(=O)=O)cccc3C(=O)N([C@H](C)CO)C[C@@H]2C)cc1	inactive	inactive	inactive
CC[C@H]1CN(C)N1C(=O)[C@@H]1CCCO1	inactive	inactive	inactive
COc1ccc2c3c([nH]c2c1)[C@H](CO)N(Cc1cc(ccc1F)F)C[C@]13CCN(CC1)C(=O)CN(C)C	inactive	inactive	inactive
COCCOC(=O)N1C(=O)[C@@]2(c3cc(C#CCCO)ccc31)[C@H](C(=O)NC[C@H](O)c1ccccc1)[C@H]1C(=O)O[C@H](c3ccccc3)[C@H](c3ccccc3)N1[C@@H]2c1ccc(O)cc1	inactive	inactive	inactive
CC(C)CC#Cc1cnc2c(c1)C(=O)N([C@H](C)CO)C[C@H](C)[C@H](CN(C)C(=O)CCN1CCCCC1)O2	inactive	inactive	inactive
Cc1[nH]c(=O)n(C(C)(C)C)c(=O)c1C	inactive	inactive	inactive
C[C@@H]1CN([C@H](C)CO)C(=O)Cc2cc(NC(=O)Nc3cccc4ccccc34)ccc2O[C@H]1CN(C)C(=O)Nc1ccccc1	inactive	inactive	inactive
CC(=O)NCCCC[C@@H]1NC(=O)[C@H]2C[C@@H](C(=O)NCCCCCN)[C@@H](c3cccc(OCCO)c3)N2C1=O	inactive	inactive	inactive
C[C@@H]1CN([C@@H](C)CO)C(=O)Cc2cc(NS(=O)(=O)c3ccccc3)ccc2O[C@H]1CN(C)CC1CC1	inactive	inactive	inactive
COc1ccc(NC(=O)N(C)C[C@@H]2OCCCC[C@H](C)Oc3ccc(NS(=O)(=O)c4ccc(Cl)cc4)cc3C(=O)N([C@H](C)CO)C[C@H]2C)cc1	inactive	inactive	inactive
COc1ccc(S(=O)(=O)N(C)C[C@H]2Oc3ccc(NC(=O)CCCN(C)C)cc3CC(=O)N([C@@H](C)CO)C[C@H]2C)cc1	inactive	inactive	inactive
Cc1noc(C)c1S(=O)(=O)Nc1ccc2c(c1)C(=O)N([C@@H](C)CO)C[C@@H](C)[C@@H](CN(C)Cc1ccccc1)OCCCC[C@H](C)O2	inactive	inactive	inactive
C[C@@H]1CN([C@@H](C)CO)C(=O)c2cc(NC(=O)NC3CCCCC3)ccc2O[C@H]1CN(C)S(C)(=O)=O	inactive	inactive	inactive
C=CCN(C(=O)[C@H]1N(CCOCCO)C(=O)[C@H]2[C@H](C(=O)O)[C@@H]3C=C[C@@]21O3)c1ccc(OC)cc1	inactive	inactive	inactive
O=C(C[C@H]1C=C[C@H](NC(=O)CN2CCOCC2)[C@H](CO)O1)NCc1cccc(F)c1	inactive	inactive	inactive
C[C@@H]1CN([C@H](C)CO)C(=O)c2cc(NC(=O)Nc3cccc4ccccc34)ccc2O[C@@H]1CN(C)Cc1ccc(Oc2ccccc2)cc1	inactive	active	inactive
Cc1ccc(S(=O)(=O)N2C[C@H](O)COC[C@H]3O[C@@H](CC(=O)NCCN4CCCCC4)CC[C@@H]32)cc1	inactive	inactive	inactive
